From PubChem BioAssay AID624296 (National Center for Advancing Translational Sciences (NCATS), 2012)
The campaign covered roughly 350,000 compounds. About 9,900 (2.8%) were called active. Inconclusive results, whose numbers are uncertain, are shown with a selection of clear calls. The call rests on the fitted dose curve; in most records, active means well fitted activation curve with a large enough effect; inconclusive means small, poorly fitted or top-dose-only effect; inactive means no such curve, though single readings can be large or run the other way. No potency is given beside an inconclusive call; the fits are too rough.

Experiment: A quantitative high throughput screen for small molecules that induce DNA re-replication in MCF 10a normal breast cells. Further: nearly all actives have a fitted effect of over 50% in size.
Conditions: MCF 10A DNA re-replication, Hoechst nuclear intensity, 48 h; series mostly up to 46.1 µM
Potency means the concentration at half of the fitted maximal effect; tags describe the fitted curve by direction and shape.

**Q.** Which Potency does the source give for `CC(=O)c1sc(NC(=O)C(C)Oc2ccc3c(C)cc(=O)oc3c2)nc1C` (centres undefined) here?
**A.** The Potency was “inactive”.

**Q.** For `Cc1ccc(CSc2nnc(-c3cccc(S(=O)(=O)N4CCOCC4)c3)n2C2CCCC2)cc1`, which Potency is on record?
**A.** Its Potency is inconclusive [activator, single point].

**Q.** Which Potency does the source give for `C[C@@H](NC(=O)[C@@H]1Cc2ccccc2CN1)C(=O)Nc1ccc2c(c1)OCO2` here?
**A.** Its Potency is “inactive”.

**Q.** For `COCCCCC(=NOCCN)c1ccc(C(F)(F)F)cc1`, which Potency is on record?
**A.** Its Potency is “inactive”.

**Q.** Which Potency does the source give for `N#Cc1cnn2c1nc(N1CCOCC1)c1ccccc12` here?
**A.** Its Potency is inconclusive [activator, partial curve, poor fit].

**Q.** Which Potency does the source give for `CC1CCN(C(=O)COc2ccc(Nc3ccccc3)cc2)CC1` here?
**A.** Its Potency is inconclusive [activator, single point].

**Q.** Which Potency does the source give for `Cc1ccc(Cl)cc1N1CCN(C(=O)COc2ccc3c(c2)CCC3)CC1` here?
**A.** The Potency was active: 13 µM.

**Q.** With `CC(C)(C)c1nnc2sc(SCC(=O)c3ccc4c(c3)OCCO4)nn2c1=O` as the compound, how does the Potency read?
**A.** Its Potency is inconclusive [activator, single point].

**Q.** For `N#CC1(Nc2ccc(S(N)(=O)=O)cc2)CCCC1`, which Potency is on record?
**A.** Its Potency is “inactive”.

**Q.** For `CCN(CC)C1CCN(C(=O)c2cc(COc3ccc(F)cc3Cl)on2)C1` (centres undefined), which Potency is on record?
**A.** The Potency was inconclusive [activator, single point].

**Q.** For `CN1C(=O)c2ccccc2Sc2ccc(NC(=O)N3CCCC3)cc21`, which Potency is on record?
**A.** The Potency was inconclusive [activator, single point].

**Q.** Which Potency does the source give for `Oc1[nH]c2ccccc2c1C=Nc1ccccc1` here?
**A.** The Potency was inconclusive [activator, single point].

**Q.** With `Cc1cccc(Nc2nc(N)nc(CCl)n2)c1` as the compound, how does the Potency read?
**A.** Its Potency is inconclusive [activator, single point].

**Q.** With `O=C(Cc1ccsc1-c1ccccc1)NO` as the compound, how does the Potency read?
**A.** Its Potency is inconclusive [activator, partial curve, poor fit].

**Q.** Which Potency does the source give for `O=C(O)COc1ccc2c(c1)O/C(=C\c1cccs1)C2=O` here?
**A.** Its Potency is inconclusive [activator, single point].

**Q.** For `Cc1ccc(C(=O)Nc2ccc3[nH]c(=O)[nH]c3c2)c(C)c1`, which Potency is on record?
**A.** The Potency was inconclusive [activator, single point].

**Q.** For `CN(CC(=O)Nc1ccc(F)c(F)c1F)c1ncnc2sccc12`, which Potency is on record?
**A.** Its Potency is inconclusive [activator, single point].

**Q.** Which Potency does the source give for `CC(C)=CC(=O)O[C@H]1[C@@H]2[C@H](C)C(=O)O[C@@H]2C[C@@H](C)[C@@H]2[C@@H](O)CC(=O)[C@]21C` here?
**A.** Its Potency is inconclusive [activator, partial curve, poor fit].

**Q.** With `C/C(=N\N1C(=O)c2ccccc2NC1c1ccco1)c1ccccc1O` (centres undefined) as the compound, how does the Potency read?
**A.** The Potency was active: 4.11 µM.

**Q.** With `CCn1c(SCc2cccc(OC)c2)nc2ccccc2c1=O` as the compound, how does the Potency read?
**A.** The Potency was inconclusive [activator, single point].

**Q.** With `COCCNC(=O)C1CC(c2ccccc2C(F)(F)F)=NO1` (centres undefined) as the compound, how does the Potency read?
**A.** Its Potency is inconclusive [activator, single point].

**Q.** For `C=CCn1c(=O)c(C(=O)Nc2cccnc2)c(O)c2ccccc21`, which Potency is on record?
**A.** Its Potency is inconclusive [activator, single point].

**Q.** Which Potency does the source give for `O=C(Nc1cccc(F)c1)c1cccnc1NCCc1ccccc1` here?
**A.** Its Potency is inconclusive [activator, single point].

**Q.** For `Cc1ccsc1C(=O)OCC(=O)Nc1nnc(-c2ccccc2)o1`, which Potency is on record?
**A.** Its Potency is inconclusive [activator, partial curve, poor fit].

**Q.** With `COc1ccc(NC(=O)CSc2ccc3ccccc3c2)cc1S(=O)(=O)N1CCCCC1` as the compound, how does the Potency read?
**A.** Its Potency is inconclusive [activator, partial curve].

**Q.** With `COc1ccc(OC)c(NC(=O)c2ccc3c(c2)CCN3S(C)(=O)=O)c1` as the compound, how does the Potency read?
**A.** Its Potency is inconclusive [activator, partial curve, poor fit].

**Q.** Which Potency does the source give for `CCOC(=O)c1ccccc1-c1csc(NS(=O)(=O)c2ccc(Cl)cc2)n1` here?
**A.** The Potency was inconclusive [activator, single point].

**Q.** With `O=C(CSc1nnc(NC(=O)c2ccccc2)s1)NCC1CCCO1` (centres undefined) as the compound, how does the Potency read?
**A.** The Potency was inconclusive [activator, single point].

**Q.** For `O=C(Cc1nc2ccccc2[nH]1)N/N=C/c1ccccc1`, which Potency is on record?
**A.** The Potency was active: 11.6 µM.

**Q.** For `Cc1nnsc1C(=O)N/N=C/c1c(F)cccc1Cl`, which Potency is on record?
**A.** The Potency was “inactive”.

**Q.** Which Potency does the source give for `CC(C)c1ccc2c(c1)C(N1CCN(C)CC1)Cc1cccnc1S2` (centres undefined) here?
**A.** Its Potency is inconclusive [activator, single point].

**Q.** For `COc1ccc2[nH]c(=O)c3c(c2c1)OC(C)(C)C=C3`, which Potency is on record?
**A.** Its Potency is inconclusive [activator, single point].

**Q.** For `O=C(Nc1ccncc1)c1ccccc1F`, which Potency is on record?
**A.** The Potency was “inactive”.

**Q.** With `Nc1[nH]c(N=NC(=O)c2ccccc2O)c2ccccc12` as the compound, how does the Potency read?
**A.** The Potency was inconclusive [activator, single point].

**Q.** Which Potency does the source give for `O=C(COC(=O)c1ccc(F)c(S(=O)(=O)N2CCOCC2)c1)NCc1ccccc1` here?
**A.** The Potency was “inactive”.

**Q.** For `CC1CCCN(C(=O)N2c3ccccc3Sc3ccccc32)C1` (centres undefined), which Potency is on record?
**A.** Its Potency is inconclusive [activator, single point].

**Q.** Which Potency does the source give for `O=C(NC(=S)Nc1ccc(N2CCN(C(=O)c3ccccc3)CC2)cc1)c1cccs1` here?
**A.** The Potency was inconclusive [activator, full curve, poor fit].

**Q.** Which Potency does the source give for `Cc1cc(/C=C2\SC(=S)NC2=O)c(C)n1-c1ccccc1` here?
**A.** Its Potency is “inactive”.

**Q.** For `CC(C)(C)c1ccc(C(=O)Cn2nc(C(=O)O)c3ccccc3c2=O)cc1`, which Potency is on record?
**A.** The Potency was inconclusive [activator, single point].

**Q.** Which Potency does the source give for `O=C(CC(=O)Nc1ccc(Cl)c(Cl)c1)N/N=C/c1ccc(O)cc1` here?
**A.** The Potency was inconclusive [activator, partial curve, poor fit].

**Q.** Which Potency does the source give for `CC(C)Cc1nc2sc3c(SCC(N)=O)ncnc3c2c2c1CCC2` here?
**A.** The Potency was “inactive”.

**Q.** For `COc1ccc(-c2ccc(SCC(=O)NCc3ccc4c(c3)OCO4)nn2)cc1OC`, which Potency is on record?
**A.** Its Potency is inconclusive [activator, single point].

**Q.** For `Cn1nc(-c2ccccc2)c(CO)c1Oc1cccc(C(F)(F)F)c1`, which Potency is on record?
**A.** Its Potency is “inactive”.

**Q.** Which Potency does the source give for `Cc1ccc(Nc2cc(C)nc(-c3ccccc3O)n2)cc1` here?
**A.** Its Potency is inconclusive [activator, single point].
